Experimental data taken from PubChem BioAssay AID686979 (National Center for Advancing Translational Sciences (NCATS), 2013).
Out of some 420,000 compounds screened, about 50,000 (12%) were called active. The inconclusive results got no clear call from the source; some entries with a clear call stand among them for comparison. Calls follow the shape of the dose curve; as a rule, active = well fitted inhibition curve with a large enough effect; inconclusive = small, poorly fitted or top-dose-only effect; inactive = flat fitted curve, though single readings scatter. No potency is given beside an inconclusive call; the fits are too rough.

Assay: qHTS for Inhibitors of human tyrosyl-DNA phosphodiesterase 1 (TDP1): qHTS in cells in presence of CPT; also: nearly all actives have a fitted effect of over 55% in size
Conditions: chicken DT40 Tdp1-/-;hTDP1 cells + 20 nM CPT, ATP luminescence, 48 h; series mostly up to 46.2 µM
How it was run: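 Chicken DT40 Tdp1-/- cells stably complemented with human TDP1 were seeded at 400 cells/well in medium containing 20 nM camptothecin, exposed to pin-transferred compounds, and grown at 37 °C for at least 48 hr. Viability was read as ATP luminescence.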
Potency is read from the fitted curve at half-maximal effect; tags tell the direction and shape of the fitted curve.

| SMILES | Potency |
| --- | --- |
| O=C(Nc1cccc(-c2nc3ncccc3o2)c1)c1ccccc1 | inconclusive [inhibitor, single point] |
| Cc1ccc(C)c(N2CCN(C(=O)CCS(=O)(=O)c3ccc4c(c3)NC(=O)CO4)CC2)c1 | inconclusive [inhibitor, single point] |
| COc1cccc(-c2sc3ccccc3c2-c2ccc(OCCN3CCCCC3)cc2)c1 | inconclusive [inhibitor, single point] |
| CCN1CCN(C(=O)C2CCC(CNS(=O)(=O)c3ccc(NC(C)=O)cc3)CC2)CC1 (stereo not drawn) | inactive |
| CCOCCOC(=O)COC(=O)c1ccccc1NC(=O)c1ccccc1 | inactive |
| COC(=O)[C@@H]1C[C@@]2(O)[C@H](O)[C@H](O)[C@H](O)C[C@H]2N1CC(c1ccccc1)c1ccccc1 | inactive |
| COc1ccc(N2CCN(C(=O)CCc3c[nH]c4ccccc34)CC2)cc1 | inactive |
| COc1ccccc1C(=O)NCCn1cc(SCC(=O)NCC2CCCO2)c2ccccc21 (stereo not drawn) | inconclusive [inhibitor, single point] |
| Cc1cccc(C(=O)N[C@H](C(=O)NCCc2ccc(Cl)cc2)C(C)C)c1 | inactive |
| COc1ccc(NC(=O)CNC(c2ccccc2)c2ccccc2)cc1 | inconclusive [inhibitor, single point] |
| Cc1ccc(Cl)cc1NC(=O)Nn1cnnc1 | inactive |
| COc1ccc(C(CNC(=O)c2cccc(S(=O)(=O)Nc3ccccc3OC)c2)N2CCOCC2)cc1 (stereo not drawn) | inconclusive [inhibitor, single point] |
| COCCCN(C(=O)CCOc1ccc(C)cc1)c1c(N)n(Cc2ccccc2)c(=O)[nH]c1=O | inactive |
| CCc1ccc(C(=O)c2cn(Cc3ccc(F)cc3)c3cc(OC)c(OC)cc3c2=O)cc1 | active: 5.8 µM |
| COc1ccc(N2CCN(Cc3nnc(-c4cccc(Br)c4)o3)CC2)cc1 | inconclusive [inhibitor, single point] |
| Cc1cc(C)cc(Oc2nc3c(C)cccn3c(=O)c2/C=C(\C#N)c2nc3ccccc3s2)c1 | inconclusive [inhibitor, single point] |
| CC(C)c1ccc(NC(=O)CSc2nc3ccsc3c(=O)n2Cc2ccc(C(=O)O)cc2)cc1 | inconclusive [inhibitor, single point] |
| COc1ccc(CCNC(=O)C(C)n2c(=O)cc(C(F)(F)F)c3c(C)nn(C)c32)cc1OC (stereo not drawn) | inconclusive [inhibitor, partial curve] |
| CN(C)CCCN(C(=O)c1ccc(S(=O)(=O)N2CCCCCC2)cc1)c1nc2ccc(Br)cc2s1 | active: 11.6 µM |
| Cc1ccc(Nc2nc(N)[nH]c(=O)c2N=O)cc1 | inconclusive [inhibitor, partial curve, poor fit] |
| CN(C)S(=O)(=O)c1cccc(NC(=S)N/N=C/C(c2ccccc2)c2ccccc2)c1 | inconclusive [inhibitor, single point] |
| Cc1ccc(C(C)C)c(OCCSc2nc3ccccc3n2CC(O)CO)c1 (stereo not drawn) | active: 13 µM |

| SMILES | Potency |
| --- | --- |
| CC(=O)c1cc(-c2ccc(F)cc2)n(CC(=O)Nc2cc(C)cc(C)c2)c1C | inconclusive [inhibitor, single point] |
| CN(C)c1cccc(C(=O)NNC(=S)NC2CCCC2)c1 | inconclusive [inhibitor, single point] |
| COc1ccc(Cl)cc1NC(=O)C1CSC(c2ccncc2)=N1 (stereo not drawn) | active: 20.6 µM |
| CC(C)c1nc(-c2ccccc2)c(-c2ccccc2)[nH]1 | inconclusive [inhibitor, single point] |
| CC(=O)C[C@@H]1SC[C@H](c2ccccc2)N1S(=O)(=O)c1ccc(C)cc1 | active: 14.6 µM |
| Cc1sc2ncnc(SCC(=O)NNC(=O)COc3cccc4ccccc34)c2c1C | inconclusive [inhibitor, single point] |
| CCCCCCCCN1C(=O)[C@H](CC(=O)N2CCN(C(=O)OCC)CC2)C[C@@]2(C(=O)OC)CCCCC=C12 | inconclusive [inhibitor, single point] |
| COc1ccc(-n2c(N3CCN(C)CC3)nc3sc4c(c3c2=O)CCCCC4)cc1 | active: 23.1 µM |
| CC(C)CCNC(=O)COc1ccc(N(C)S(=O)(=O)c2ccc(F)cc2)cc1 | inconclusive [inhibitor, single point] |
| Cc1ccsc1C(=O)N1CCC(N2CCC(C(=O)NCC3CCCO3)CC2)CC1 (stereo not drawn) | inactive |
| Cc1cc(C)c2cc(CN(Cc3nnnn3C3CCCCC3)CC3CCCO3)c(=O)[nH]c2c1 (stereo not drawn) | inconclusive [inhibitor, partial curve] |
| CC(=O)c1cc2c(cc1NC(=O)Cc1ccsc1)OCO2 | inactive |
| COc1ccc(S(=O)(=O)N2CCCC2C(=O)Nc2ccc(C)cc2)cc1 (stereo not drawn) | inconclusive [inhibitor, partial curve] |
| C[C@@H](O)C1NC(=O)[C@H](CCCCN)NC(=O)c2cc([N+](=O)[O-])cc(I)c2OCC[C@@H](C(N)=O)NC1=O (stereo partly drawn) | inactive |
| CCOC(=O)c1cnc(SCc2nc(N)nc(Nc3ccc(F)cc3)n2)nc1N | inconclusive [inhibitor, single point] |
| CCOC(=O)c1csc(NC(=O)CN2CCN(C)CC2)n1 | inconclusive [inhibitor, partial curve, poor fit] |
| O=[N+]([O-])c1cccc(C=Nc2cc3c(cc2Br)OCCO3)c1 | inactive |
| Nc1cccc2c(=O)[nH][nH]c(=O)c12 | inconclusive [inhibitor, partial curve, poor fit] |
| COc1cccc(NC(=O)/C(C#N)=C/c2c(C)n(Cc3ccc(Cl)cc3)c3ccccc23)c1 | inactive |
| O=C(NCc1ccco1)c1ccc2c(c1)N(Cc1ccc(Cl)cc1)C(=O)c1ccccc1S2 | inconclusive [inhibitor, single point] |
| COc1ccc(S(=O)(=O)N(C)CC(=O)N2CCN(Cc3ccccc3)CC2)cc1C | inconclusive [inhibitor, single point] |
